We go through three molecules from patent publication US20130158024A1, “TRICYCLIC NECROSTATIN COMPOUNDS” (priority 2005, published 2013).

Entries after “also recorded” stand apart in the source; their conditions may differ. Where two headings read alike, the source gives them in different places. Where a SMILES comes first, the peptide text is derived from it. The star is where a group is joined. Cbz = O=C(OCc1ccccc1)*; CH2F = FC*

In data set [1] the test system is mouse two-hour middle cerebral artery occlusion (MCAO)/reperfusion model of brain ischemia. As to conditions: for infarct volume, combination with zVAD.fmk, in words: coadministration with zVAD.fmk (160 ng); for caspase-3 activation in ischemic brain, in words: western blotting, three hours after reperfusion. For orientation: In western blotting, separated proteins are transferred to a membrane and probed.

The test system is the same in data set [2]. As to conditions: two-hour ischemia-reperfusion model following MCA occlusion; cited from earlier work.

With `CN1C(=O)C(Cc2c[nH]c3c(Cl)cccc23)NC1=S` (centres unmarked) [Compound 7-Cl-Nec-1], the “effect on general physiology, in words” value in data set [1] (blood oxygen and CO2 levels, body temperature, cerebral blood flow) is “did not affect blood oxygen and CO2 levels, body temperature or cerebral blood flow”. For the same molecule, the “infarct volume, combination with zVAD.fmk, in words” value in data set [1] (listed as LDN53064) is on record as “additive effect of LDN53064 with zVAD.fmk on infarct size”. In addition, the “caspase-3 activation in ischemic brain, in words” value in data set [1] is reported as “does not inhibit caspase-3 activation during brain ischemia; also recorded: not associated with a reduction of caspase-3 activation”; in data set [1] (listed as 7-C1-Nec-1), “did not block caspase-3 activation during ischemic brain injury”.
With `COC(=O)C[C@H](NC(=O)[C@H](C)NC(=O)[C@@H](NC(=O)OCc1ccccc1)C(C)C)C(=O)CF` [zVAD.fmk, N-benzyloxycarbonyl-Val-Ala-Asp-(OMe) fluoromethyl ketone, reference compound] (Cbz-Val-Ala-Asp(OMe)-CH2F), in data set [2], the “therapeutic window reported for other drug candidate classes” value is given as “effective up to three hours postocclusion”. Moreover, in data set [1], the “caspase-3 activation in ischemic brain, in words” value is recorded as “whereas zVAD.fmk did”.
Regarding methylthiohydantoin-tryptophane [Nec-1], in data set [1], the “infarct volume, combination with zVAD.fmk, in words” value is “demonstrated an additive protective effect with the caspase inhibitor”. Also, in data set [1] (injection at four and six hours, brains collected eight hours after occlusion), the “LC3-II induction in ischemic brain, in words” value was “delayed administration of Nec-1 inhibited LC3II generation”.
